# From the supplement of paper PMC12217912
# The list shows a part of the results. Sequences were assembled here from the parent chain. Values near 0.05 are background.
# B1: TEV protease; numbered along this chain (parent)
# chain: MGESLFKGPRDYNPISSSICHLTNESDGHTTSLYGIGFGPFIITNKHLFRRNNGTLVVQSLHGVFKVKDTTTLQQHLVDGRDMIIIRMPKDFPPFPQKLKFREPQREERICLVTTNFQTKSMSSMVSDTSCTFPSGDGIFWKHWIQTKDGQCGSPLVSTRDGFIVGIHSASNFTNTNNYFTSVPKNFMELLTNQEAQQWVSGWRLNADSVLWGGHKVFMVKPEEPFQPVKEATQL
# Variants of: B1
# Assay: raw area under fraction-flipped curve 0-4 h after induction (AUC4h, not background-subtracted), DNA-recorder readout of cleavage of the substrate (dimensionless); higher = more cleavage of the substrate by the protease variant
# Settings: temperature: 34 °C; time window: 0-4 h after rhamnose induction
# Method: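 In vivo DNA recorder in E. coli TOP10(DE3) ΔrhaA at 34 °C. Each TEVp single-site mutant (parent TEVp 0) is paired with a single-site variant of the 7-mer TEVs (canonical ENLYFQ|S). The substrate sits between flexible linkers in a Bxb1-sfGFP-TEVs-SsrA fusion, so cleavage stabilises Bxb1 and speeds flipping of a recombination array, read by NGS. The value is the raw area under the fraction-flipped curve over 0-4 h after rhamnose induction (AUC4h), with ≥20 reads per time point. It is not background-subtracted; inactive controls average about 0.047.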
# 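Note: Bxb1 expression induced with 0.2% (w/v) L-rhamnose at OD600 near 0.5, cultures sampled hourly, flipped fraction per protease–substrate barcode pair counted by paired-end Illumina sequencing.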
Variant,area with substrate ENLAFQS,area with substrate ENLCFQS,area with substrate ENLDFQS,area with substrate ENLEFQS,area with substrate ENLFFQS,area with substrate ENLKFQS,area with substrate ENLLFQS,area with substrate ENLMFQS,area with substrate ENLNFQS,area with substrate ENLPFQS,area with substrate ENLQFQS,area with substrate ENLRFQS,area with substrate ENLSFQS,area with substrate ENLVFQS,area with substrate ENLHFQS,area with substrate ENLGFQS,area with substrate ENLIFQS,area with substrate ENLTFQS,area with substrate ENLWFQS
MGESLFKGPRDYNPISSSICHLTNESDGHTTSLYGIGFGMFIITNKHLFRRNNGTLVVQSLHGVFKVKDTTTLQQHLVDGRDMIIIRMPKDFPPFPQKLKFREPQREERICLVTTNFQTKSMSSMVSDTSCTFPSGDGIFWKHWIQTKDGQCGSPLVSTRDGFIVGIHSASNFTNTNNYFTSVPKNFMELLTNQEAQQWVSGWRLNADSVLWGGHKVFMVKPEEPFQPVKEATQL [P40M],0.0638,0.0731,0.0549,0.0636,0.0861,0.0786,0.0731,0.0823,0.0711,0.0685,0.064,0.0721,0.0705,0.0481,,,,,
MGESLFKGPRDYNPISSSICHLTNESDGHTQSLYGIGFGPFIITNKHLFRRNNGTLVVQSLHGVFKVKDTTTLQQHLVDGRDMIIIRMPKDFPPFPQKLKFREPQREERICLVTTNFQTKSMSSMVSDTSCTFPSGDGIFWKHWIQTKDGQCGSPLVSTRDGFIVGIHSASNFTNTNNYFTSVPKNFMELLTNQEAQQWVSGWRLNADSVLWGGHKVFMVKPEEPFQPVKEATQL [T31Q],0.0579,,0.0637,,0.0725,,,,0.0679,,,0.0635,0.0637,,0.0809,,,,
MGESLFKGPRDYNPISSSICHLTNESDGHTTSLYGIGRGPFIITNKHLFRRNNGTLVVQSLHGVFKVKDTTTLQQHLVDGRDMIIIRMPKDFPPFPQKLKFREPQREERICLVTTNFQTKSMSSMVSDTSCTFPSGDGIFWKHWIQTKDGQCGSPLVSTRDGFIVGIHSASNFTNTNNYFTSVPKNFMELLTNQEAQQWVSGWRLNADSVLWGGHKVFMVKPEEPFQPVKEATQL [F38R],0.0656,0.0433,0.0572,0.0646,0.0635,0.0583,0.0595,0.049,0.0495,,0.0574,0.048,,0.0855,0.0572,0.0571,0.0495,0.0483,0.0562
MGESLFKGPRDYNPISSSICHLTNESDGHTTSKYGIGFGPFIITNKHLFRRNNGTLVVQSLHGVFKVKDTTTLQQHLVDGRDMIIIRMPKDFPPFPQKLKFREPQREERICLVTTNFQTKSMSSMVSDTSCTFPSGDGIFWKHWIQTKDGQCGSPLVSTRDGFIVGIHSASNFTNTNNYFTSVPKNFMELLTNQEAQQWVSGWRLNADSVLWGGHKVFMVKPEEPFQPVKEATQL [L33K],0.0666,0.0358,0.0653,,0.0703,0.0712,0.0483,,0.0497,0.0619,0.057,0.0713,0.064,,0.0563,,,,0.0716
MGESLFKGPRDYNPISSSICHLTNESDGHTTSSYGIGFGPFIITNKHLFRRNNGTLVVQSLHGVFKVKDTTTLQQHLVDGRDMIIIRMPKDFPPFPQKLKFREPQREERICLVTTNFQTKSMSSMVSDTSCTFPSGDGIFWKHWIQTKDGQCGSPLVSTRDGFIVGIHSASNFTNTNNYFTSVPKNFMELLTNQEAQQWVSGWRLNADSVLWGGHKVFMVKPEEPFQPVKEATQL [L33S],0.0659,0.0627,0.0723,0.0791,0.0899,0.0831,0.0717,,0.0688,0.0825,0.0706,0.061,0.0682,,0.0677,0.0512,0.0625,,0.0741
